From KR20230171885A (dated 2023)

Experiments:
[1] = target: T1, 재조합 인간 TIGIT 단백질 (Acro Biosystems) (human, UniProt Q495A1 22-141); test: SPR, Biacore T200 multi-cycle kinetics, 25C; fusion protein captured on anti-human IgG CM5 chip, recombinant human TIGIT as analyte; 1:1 model
T1 construct: Bought recombinant protein; also called recombinant human TIGIT; TIGIT 항원
T1 sequence: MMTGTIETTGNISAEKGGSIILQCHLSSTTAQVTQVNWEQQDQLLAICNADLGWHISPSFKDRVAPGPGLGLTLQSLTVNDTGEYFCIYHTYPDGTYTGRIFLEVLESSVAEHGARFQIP

[2] = target: T2, IL2RB/IL2RG (PathHunter eXpress Dimerization Cells) (UniProt P14784 27-551; P31785 23-369, limits assumed); test: cell-based or functional assay
T2 sequence (looked up) 1: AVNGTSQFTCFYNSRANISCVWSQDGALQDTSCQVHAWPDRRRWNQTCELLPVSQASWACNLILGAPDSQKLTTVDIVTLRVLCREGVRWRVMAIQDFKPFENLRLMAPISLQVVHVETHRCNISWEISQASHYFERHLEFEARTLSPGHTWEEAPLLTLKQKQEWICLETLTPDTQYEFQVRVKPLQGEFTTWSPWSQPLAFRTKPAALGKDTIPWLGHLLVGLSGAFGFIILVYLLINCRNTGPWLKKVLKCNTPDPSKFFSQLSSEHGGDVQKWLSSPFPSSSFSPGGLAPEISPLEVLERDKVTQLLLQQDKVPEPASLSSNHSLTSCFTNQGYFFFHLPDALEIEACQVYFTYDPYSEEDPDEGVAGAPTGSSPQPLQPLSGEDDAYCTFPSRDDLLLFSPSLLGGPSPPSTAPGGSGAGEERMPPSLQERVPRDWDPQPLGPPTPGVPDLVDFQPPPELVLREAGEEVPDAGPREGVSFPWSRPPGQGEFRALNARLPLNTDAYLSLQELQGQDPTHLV
T2 sequence (looked up) 2: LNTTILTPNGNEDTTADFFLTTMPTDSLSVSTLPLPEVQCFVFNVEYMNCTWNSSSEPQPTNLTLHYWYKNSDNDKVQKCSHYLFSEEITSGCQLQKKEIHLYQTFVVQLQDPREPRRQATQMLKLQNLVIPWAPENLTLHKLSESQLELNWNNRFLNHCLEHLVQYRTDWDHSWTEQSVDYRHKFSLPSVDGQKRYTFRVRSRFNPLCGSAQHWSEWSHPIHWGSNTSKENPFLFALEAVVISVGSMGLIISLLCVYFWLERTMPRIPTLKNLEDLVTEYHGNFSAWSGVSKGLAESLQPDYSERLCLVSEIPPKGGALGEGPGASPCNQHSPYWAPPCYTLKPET

B1: 7A6RS15TL-2 (7A6-RS15.0; 7A6 VH3/Vk5-RS15.0) (other)
heavy: QVQLQESGPGLVKPSQTLSLTCTVTGYSITSDYAWNWIRQPPGKGLEWMGYISYSGSARYNPSLKSRVTISRDTSKNQFSLKLSSVTAEDTATYYCARKGYPAYFAYWGQGTLVTVSSASTKGPSVFPLAPSSKSTSGGTAALGCLVKDYFPEPVTVSWNSGALTSGVHTFPAVLQSSGLYSLSSVVTVPSSSLGTQTYICNVNHKPSNTKVDKRV[sequence of human IgG1 Fc not given]
light: DIQMTQSPSSLSASVGDRVSITCKASQDVSTAVAWYQQKPGQAPRLLIYSASYRYTGVPDRFSGSGSGTDFTLTISSLQPEDFATYYCQHHYSTPYTFGQGTKLEIKRTVAAPSVFIFPPSDEQLKSGTASVVCLLNNFYPREAKVQWKVDNALQSGNSQESVTEQDSKDSTYSLSSTLTLSKADYEKHKVYACEVTHQGLSSPVTKSFNRGECEAAAKEAAAKEAAAKITCPPPMSVEHADIWVKSYSLYSRERYICNSGFKRKAGTSSLTECVLNKATNVAHWTTPSLKCIRDPALVHQRPAPPSGGSGGGGSGGGSGGGGSLQ[sequence of about 120 residues not given]
notes: Antibody-cytokine fusion
B1 gave a Kd [1] of 0.756 nM, a koff [1] of 0.00179 s⁻¹ and a kon [1] of 2.37e+06 M⁻¹ s⁻¹. For the same binder, the “IL2RB/IL2RG 이량체화 (PathHunter eXpress Dimerization Assay, 화학발광) EC50” value [2] was 0.248 nM.
